# Laboratory results reported in PubChem BioAssay AID720542 (National Center for Advancing Translational Sciences (NCATS), 2013).
# The campaign covered roughly 360,000 compounds. About 740 (0.21%) were called active. The shares of active, inactive and inconclusive entries below differ from those in the screen. Calls come from the whole dose curve; as a rule, active = well fitted inhibition curve with a large enough effect; inconclusive = small, poorly fitted or top-dose-only effect; inactive = no such curve, though single readings can be large or run the other way. No potency is given beside an inconclusive call; the fits are too rough.
# System: Plasmodium falciparum AMA1 (3D7) - RON2 peptide interaction
# Assay: qHTS for Inhibitors of AMA1-RON; Towards Development of Antimalarial Drug Lead: Primary Screen; note: nearly all actives have a fitted effect of over 45% in size;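 for activity change, negative = inhibition: 0% = vehicle wells and -100% = peptide control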
# Conditions: AlphaScreen AMA1-biotinylated RON2 peptide binding; activity change, negative = inhibition: at 58.2 µM (top of the series) unless noted
# Method in brief: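 AMA1 (3D7) with his tag at 25 nM final met compounds first, then biotinylated RON2 peptide at 25 nM; detection used donor plus acceptor beads, 10 µg/mL apiece, read by AlphaScreen after 30 min at room temperature.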
# Potency is the fitted concentration of half-maximal effect; tags give direction and shape of the fitted curve.
Structure (SMILES),Potency,"activity change, negative = inhibition"
CCOc1cc(/C=C2\C(=O)N(Cc3ccco3)C(C)=C2C(=O)OC)ccc1O,"inconclusive [inhibitor, single point]",–
Cc1ccc(CN2CCN(c3ccccc3)CC2)o1,"inconclusive [inhibitor, single point]",–
CC1CCN(CC#CCOc2ccc(Cl)cc2)CC1,"inconclusive [inhibitor, partial curve]",–
Cc1ccc(NC(=O)CN2C(=O)N/C(=C/c3ccccc3OCc3cccc(C(=O)O)c3)C2=O)cc1,"inconclusive [inhibitor, partial curve]",–
O=C(c1ccc(COc2ccccc2Cl)o1)N1CCN(c2ccccc2)CC1,"inconclusive [inhibitor, single point]",–
Cc1ccc(C(=O)OCc2cc(=O)n3c(C)csc3n2)s1,"inconclusive [inhibitor, single point]",–
COC(=O)[C@@]1(Cc2ccc(F)cc2)[C@H]2c3cc(C(=O)N4CCCC4)n(C)c3C[C@H]2CN1C(=O)c1ccccc1,–,inactive: -23.9%
CCN(CC)c1ccc(/C=N/N2CCN(Cc3ccccc3)CC2)cc1,"inconclusive [inhibitor, partial curve]",–
COc1ccc(CNC(=O)c2noc3c2CCCC3)cc1,–,inactive: 5.52%
CCOc1cc(CNc2ccc3c(c2)CCC3)ccc1O,–,inactive: -26.6%
CSc1nc(N(CCO)CCO)c2sc3nc(-c4ccco4)c4c(c3c2n1)CCC4,active: 11.2 µM,–
O=C(NC1CCCCC1)c1ccc(Cn2cc(Br)cn2)o1,–,inactive: -8.57%
CC[n+]1ccc(C)c2cc(P(=O)(c3ccccc3)c3ccccc3)ccc21,"inconclusive [inhibitor, partial curve]",–
CN1CCN(S(=O)(=O)c2ccc(N(C)Cc3ccc(C(F)(F)F)cc3)c([N+](=O)[O-])c2)CC1,"inconclusive [inhibitor, single point]",–
CC(C)(C)c1nc2ccccc2c2nnc(SCC(=O)Nc3nc4ccccc4s3)n12,"inconclusive [inhibitor, single point]",–
CC1(C(=O)N2Cc3ccccc3C2)CCN1C(=O)C1(c2ccccc2)CC1 (configuration not stated),–,inactive: -0.278%
CN1CCN(CCOCCOc2ccc(Br)cc2Cl)CC1,"inconclusive [inhibitor, single point]",–
CCOC(=O)C1=CC[C@@H](c2ccccc2)N(S(=O)(=O)c2ccc(C)cc2)[C@H]1c1ccccc1C,–,inactive: 2.43%
Cc1ccc(-c2nc(C#N)c(N3CCCCC3)o2)cc1,"inconclusive [inhibitor, full curve, poor fit]",–
CCCCCN=Cc1c(C)[nH]n(-c2nc3ccccc3s2)c1=O,–,inactive: 4.68%
COC(=O)c1ccc(N=Nc2c(C)[nH]n(-c3ccccc3)c2=O)cc1,"inconclusive [inhibitor, full curve, poor fit]",–
O=C(CSc1nc2ccccc2c(=O)n1-c1ccc(SC(F)F)cc1)Nc1ccc(N2CCOCC2)cc1,"inconclusive [inhibitor, full curve, poor fit]",–
c1ccc(Nc2nc(N3CCNCC3)nc(N3CCOCC3)n2)cc1,–,inactive: -21.5%
COc1ccc(Cn2nc(-c3ccccc3)c(N3CCCCC3)cc2=O)cc1,"inconclusive [inhibitor, partial curve]",–

Structure (SMILES),Potency,"activity change, negative = inhibition"
CCC(C)NS(=O)(=O)c1ccc(F)c(C(=O)Nc2c(F)cc(F)cc2Br)c1 (configuration not stated),–,inactive: -0.617%
O=C(Nc1ccc2c(c1)OCO2)C1Cc2c(-c3ccccc3Oc3ccccc3)ccnc2O1 (configuration not stated),"inconclusive [inhibitor, partial curve]",–
COc1ccccc1N/N=C1\COC(C)(C)CC1=O,"inconclusive [inhibitor, partial curve]",–
COc1ccc(-c2c(-c3cc(OC)cc(OC)c3)n(C)c3ccc(-c4ccc(OC)nc4)cc23)cc1,–,inconclusive: -19.5% [inhibitor]
O=C(COC(=O)c1ccc(Cl)s1)c1ccc[nH]1,–,inactive: 0%
O=C(OCc1nnc(-c2ccccc2Br)o1)c1ccco1,–,inactive: 42.4%
O=C(CNC(=O)c1ccc(Cl)cc1)N/N=C/C=C/c1ccccc1,"inconclusive [inhibitor, partial curve]",–
CCNC(=S)NNC(=O)c1cc(-c2cccc(C)c2)nc2ccccc12,–,inactive: 27%
COc1ccccc1NC(=S)N(CCN1CCCCCC1)Cc1cccs1,"inconclusive [inhibitor, full curve, poor fit]",–
OC(c1cc(C(F)(F)F)nc2c(Cl)cc(Cl)cc12)C1CCCCN1 (configuration not stated),"inconclusive [inhibitor, single point]",–
Cn1c(=O)c2c(nc(NN=C3CCCCC3)n2C)n(C)c1=O,–,inactive: 29%
O=C(NCc1ccco1)c1c(F)c(F)c(F)c(C(=O)NCc2ccco2)c1F,–,inactive: 1.42%
CCN1CCN(c2nc(Nc3ccc(C)c(C)c3)nc(N)c2[N+](=O)[O-])CC1,"inconclusive [inhibitor, partial curve]",–
C=CC[C@]12CCc3ccccc3C1N(c1ccc(C(=O)OCC)cc1)C2=O (some centres not stated),–,inactive: 7.99%
NC(Cc1c[nH]c2ccc(OCc3ccccc3)cc12)C(=O)O (configuration not stated),–,inactive: 28.5%
C=CC(c1ccccc1)C(C(=O)c1ccccc1)N(C)C (configuration not stated),–,inactive: -6.44%
CCOC(=O)CN(C(=O)CSc1nnc(-c2ccc(OC)c(OC)c2)o1)c1ccc(F)cc1,"inconclusive [inhibitor, partial curve]",–
Cn1c(=O)cc2c3c(c(N4CCCCC4)ccc31)C(=O)c1ccccc1-2,"inconclusive [inhibitor, partial curve]",–
CCN(CC)S(=O)(=O)c1ccc(C)c(NC(=O)CN2CCN(C)CC2)c1,"inconclusive [inhibitor, partial curve]",–
CC1CCCN(CCOCCOc2ccccc2-c2ccccc2)C1 (configuration not stated),"inconclusive [inhibitor, partial curve, poor fit]",–
C=CCN1CCN(C(c2ccccc2)c2nnnn2CCC(C)C)CC1 (configuration not stated),"inconclusive [inhibitor, single point]",–
O=C(Nc1ccc2nn(-c3ccccc3)nc2c1)c1cccs1,–,inactive: -3.64%
Cc1ccc(S(=O)(=O)NCC(c2ccc3c(c2)OCO3)N2CCN(c3ccccc3)CC2)cc1 (configuration not stated),–,inactive: -2.09%
O=[N+]([O-])c1c(NCCO)cc(N2CCC3(CC2)OCCO3)c2nonc12,–,inactive: -7.09%

Structure (SMILES),Potency,"activity change, negative = inhibition"
O=C1c2ccccc2C(=O)N1CCCn1ccnc1,"inconclusive [inhibitor, partial curve]",–
OCCCn1c(-c2ccccc2)csc1=Nc1ccccc1,"inconclusive [inhibitor, single point]",–
Cc1nn(-c2ccccc2Cl)c(Cl)c1/C=N/Nc1cccc(C(=O)O)c1,"inconclusive [inhibitor, partial curve]",–
COc1ccccc1CNC(=O)CCC(=O)N1Cc2cccc(OC)c2Oc2ncccc21,–,inactive: -5.04%
Nc1nc(CN2CCN(Cc3ccccc3)CC2)nc(Nc2ccccc2)n1,"inconclusive [inhibitor, single point]",–
COc1ccc(OC)c(C(c2nnnn2CCc2ccccc2)N2CCN(c3ccccc3)CC2)c1 (configuration not stated),"inconclusive [inhibitor, partial curve]",–
O=[N+]([O-])c1cc(Cl)ccc1N1CCCCC1,"inconclusive [inhibitor, single point]",–
C[C@]12CC[C@@H]3c4cc(O)c(O)cc4CC[C@H]3[C@@H]1CC[C@@H]2O,"inconclusive [inhibitor, partial curve]",–
CN(C)/N=C/c1ccc(P(c2ccc(/C=N/N(C)C)o2)c2ccc(/C=N/N(C)C)o2)o1,"inconclusive [inhibitor, partial curve]",–
CCC(C)(C)n1nnnc1C(c1cc2cc(OC)ccc2[nH]c1=O)N1CCc2ccccc21 (configuration not stated),"inconclusive [inhibitor, partial curve]",–
O=C(NCCCO)c1ccc2nc(-c3ccco3)c(-c3ccco3)nc2c1,"inconclusive [inhibitor, single point]",–
CN(CC(=O)Nc1ccc(Cl)c(C(F)(F)F)c1)C(=O)c1cc(-c2ccncc2)nc2ccccc12,–,inactive: 0.356%
Cc1nc(-c2ccccc2)sc1C(=O)Nc1ccc(S(N)(=O)=O)cc1,–,inactive: 0.808%
O=C(CSc1ccccn1)N1CCN(c2cccc(Cl)c2)CC1,–,inactive: 1.39%
O=C(NC(=S)NCCCN1CCOCC1)c1ccco1,–,inactive: 7.92%
COc1ccc(C(C)(NC(C)=O)c2nc(-c3cnc4ccccc4c3)cs2)cc1 (configuration not stated),–,inactive: -6.46%
COc1ccc(C2c3[nH]c4ccccc4c3CCN2CCCn2cccn2)c(C)c1C (configuration not stated),"inconclusive [inhibitor, partial curve]",–
CCc1nnc(-n2nc(C)cc2-c2ccccc2)n1N,–,inactive: -0.446%
c1ccc(NC2=Nc3cccc4cccc2c34)cc1,"inconclusive [inhibitor, single point]",–
CCn1cc(Cl)c(C(=O)N2N=C(c3ccc4ccccc4c3)CC2c2ccccc2O)n1 (configuration not stated),"inconclusive [inhibitor, full curve]",–
COC(=O)C1=C(C)N(Cc2ccco2)C(=O)C1,"inconclusive [inhibitor, full curve]",–
CC1CCN(C2=C(NS(=O)(=O)c3ccc(Br)cc3)C(=O)c3ccccc3C2=O)CC1,active: 12.6 µM,–
Cc1nn(C)c(C(=O)Nc2ccn(C34CC5CC(CC(C5)C3)C4)n2)c1[N+](=O)[O-],–,inconclusive: -14% [inhibitor]
CCOC(=O)NNc1ccc2nonc2c1[N+](=O)[O-],"inconclusive [inhibitor, single point]",–
